According to the supplement of paper PMC10369915:
The other results are listed elsewhere or left out. Cut-off read from the data, not from the text of the source: active = 3.2 or more and inactive = the rest. Only a few entries rise above the background.

How the values were obtained:
Test in all cases: enrichment score (SH2-bound / input frequency) (ratio); bacterial display of known human phosphotyrosine sites (pTyr-Var adds point mutants) read by sequencing; higher = stronger binding; tyrosines were phosphorylated by kinases first
Conditions in all cases: peptide library: Human pTyr
[1] = target: SHP2 C-SH2 domain E139D
[2] = target: SHP2 C-SH2 domain wild-type
[3] = target: SHP2 N-SH2 domain L43F
[4] = target: SHP2 N-SH2 domain T42A
[5] = target: SHP2 N-SH2 domain T52S
[6] = target: SHP2 N-SH2 domain wild-type

Measured: enrichment score
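Note: displayed peptides selected on beads carrying the immobilized SH2 domain, with library peptides lacking any tyrosine serving as negative controls.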

B1: CDK6_HUMAN_24 (peptide)
chain: AEIGEGAYGKVFKAR
inactive: [1] 0.841 | [2] 0.823 | [3] 0.813 | [4] 0.88 | [5] 0.923 | [6] 1.21

B2: DEFI6_HUMAN_210 (peptide)
chain: SMAIHEVYQELIQDV
inactive: [1] 1.07 | [2] 0.868 | [3] 1.29 | [4] 0.95 | [5] 1.01 | [6] 1.06

B3: DDR1_HUMAN_797 (peptide)
chain: NLYAGDYYRVQGRAV
inactive: [1] 1.06 | [2] 0.915 | [3] 0.812 | [4] 0.685 | [5] 0.797 | [6] 0.916

B4: CHERP_HUMAN_714 (peptide)
chain: GWEQNGLYEFFRAKM
inactive: [1] 1.72 | [2] 1.57 | [3] 1.5 | [4] 1.49 | [5] 1.84 | [6] 2.2

B5: CSK_HUMAN_304 (peptide)
chain: DVCEAMEYLEGNNFV
inactive: [1] 1.53 | [2] 1.29 | [3] 1.54 | [4] 1.41 | [5] 1.34 | [6] 1.46

B6: CTNB1_HUMAN_86 (peptide)
chain: VADIDGQYAMTRAQR
inactive: [1] 0.667 | [2] 0.581 | [3] 0.647 | [4] 0.666 | [5] 0.543 | [6] 0.57

B7: DDX41_HUMAN_414 (peptide)
chain: DVIQEVEYVKEEAKM
inactive: [1] 1.14 | [2] 0.88 | [3] 1.05 | [4] 0.933 | [5] 1.17 | [6] 1.1

B8: DLG2_HUMAN_755 (peptide)
chain: GQYNDNLYGTSVQSV
inactive: [1] 0.606 | [2] 0.477 | [3] 0.594 | [4] 0.473 | [5] 0.49 | [6] 0.463

B9: COF1_HUMAN_68 (peptide)
chain: GQTVDDPYATFVKML
inactive: [1] 0.997 | [2] 1.12 | [3] 0.877 | [4] 1.03 | [5] 0.818 | [6] 0.926

B10: DCTN2_HUMAN_86_YA (peptide)
chain: TGAESGEYEMLGEGL
inactive: [1] 0.753 | [2] 0.506 | [3] 0.696 | [4] 0.622 | [5] 0.631 | [6] 0.658

B11: CYP19A1_HUMAN_361 (peptide)
chain: KVMENFIYESMRYQP
inactive: [1] 0.926 | [2] 0.969 | [3] 0.858 | [4] 0.836 | [5] 0.771 | [6] 1.12

B12: CLIC5_HUMAN_33 (peptide)
chain: EENESPHYDDVHEYL
inactive: [1] 0.98 | [2] 1.06 | [3] 1.07 | [4] 1.15 | [5] 0.93 | [6] 0.994

B13: CFTR_HUMAN_512_YA (peptide)
chain: NIIFGVSYDEARARS
inactive: [1] 0.622 | [2] 0.532 | [3] 0.655 | [4] 0.562 | [5] 0.543 | [6] 0.54

B14: DAZL_HUMAN_276 (peptide)
chain: SVVTQDDYFKDKRVH
inactive: [1] 1.01 | [2] 0.88 | [3] 0.923 | [4] 0.819 | [5] 0.899 | [6] 1.09

B15: DLG2_HUMAN_505 (peptide)
chain: AQYQPEDYARFEAKI
inactive: [1] 0.787 | [2] 0.706 | [3] 0.797 | [4] 0.657 | [5] 0.993 | [6] 0.859

B16: DDX3X_HUMAN_104 (peptide)
chain: DDRGRSDYDGIGSRG
inactive: [1] 0.621 | [2] 0.628 | [4] 0.59 | [5] 0.494 | [6] 0.436

B17: DDX41_HUMAN_364 (peptide)
chain: DIRTIFSYFKGQRQT
inactive: [1] 2.33 | [2] 2.45 | [3] 2.23 | [4] 2.02 | [5] 1.83 | [6] 2.68

B18: CTNB1_HUMAN_64 (peptide)
chain: VDTSQVLYEWEQGFS
inactive: [1] 0.693 | [2] 0.58 | [3] 0.57 | [4] 0.629 | [5] 0.729 | [6] 0.702
